The structures appear in SMILES notation. Among all 320,000 compounds or so, about 740 (0.23%) were called active. Roughly 2% stayed inconclusive and do not appear here. The call rests on the fitted dose curve; in most records, active means well fitted activation curve with a large enough effect; inconclusive means small, poorly fitted or top-dose-only effect; inactive means no such curve, though single readings can be large or run the other way. The entries are a selection whose mix differs from that of the whole data set. The source gives no active or inactive call for entries shown without one.
Potency means the concentration at half of the fitted maximal effect.

This assay can be described thus: qHTS Assay for Small Molecule Inhibitors of Mitochondrial Division or Activators of Mitochondrial Fusion. Further: nearly all actives have a fitted effect of over 45% in size. On growth rescue (activation): % of control where 0% means no effect. The conditions noted are these: S. cerevisiae fusion-defective mutant growth rescue, CellTiterGlo 48 h; growth rescue (activation): at 46.1 µM (top of the series). An excerpt: NIH Chemical Genomics Center [NCGC] NIH Molecular Libraries Probe Production centers Network [MLPCN] MLPCN Grant: MH081279-01 Assay Submitter (PI): Jodi M. Nunnari NCGC Assay Overview: The budding yeast S. cerevisiae is a powerful system to study mitochondrial fusion. Unlike other organisms, yeast cells without functional mitochondrial DNA (mtDNA) can be propagated and studied as long as they maintain a mitochondrial compartment and are provided with a fermentable carbon source. When mitochondrial fusion is blocked in yeast, mitochondrial tubules rapidly fragment and division continues unopposed. Under conditions where fusion is compromised in mammalian cells, nearly identical changes in mitochondrial structure have been observed. Thus, these findings indicate that steady state mitochondrial structure in cells is a characteristic and specific indicator of fusion activity. Mounting evidence has pointed to a connection between mitochondrial dynamics and apoptosis in mammalian cells. These studies indicate that in mammalian cells mitochondrial dynamics are more integrated into cellular processes than in yeast cells and have evolved not only to distribute the organelle but also to aid in the regulation of cellular homeostasis. Mitochondrial fusion proteins attenuate apoptosis by inhibiting the release of cytochrome c from mitochondria, in part by controlling cristae structures. Thus, small molecules that inhibit mitochondrial […] may promote apoptosis and potentially act as novel chemotherapeutics and stimulation of apoptosis has become an attractive target of anti-cancer therapies. To identify inhibitors of mitochondrial division, we exploit the growth phenotypes of mitochondrial fusion-defective mutants. The temperature sensitive fusion alleles, such as fzo1-1 and mgm1-5, cause mitochondrial membranes to fragment in cells under non-permissive conditions and cells lose mtDNA, and are unable to grow in the presence of non-fermentable carbon source glycerol. Inhibiting mitochondrial division rescues growth. We have developed and optimized a luminescence cell viability assay in 1536 well format for the identification of inhibitors in the yeast mitochondrial fusion-defective assay.
The yeast glycerol stocks where kindly supplied by the laboratory of Dr. Jodi Nunnari, University of California, Davis. All yeast glycerol stock solutions were stored in single use aliquots at -80C. The CellTiterGlo luminescence reagent, containing luciferase and luciferin, were purchased from Promega, and the reagents were stored according to manufacturer's instructions. The Buffer components for the YPEG yeast growth medium were purchased from Sigma-Aldrich (St. Louis, MO). YPEG growth medium: 1% (w/v) yeast extract, 2% (w/v) Bacto-peptone, 3% Ethanol, 3% glycerol, 0.4mM Tryptophan, 0.36mM Adenine. qHTS Assay Protocol: 1.#Dispense 2.5 ul yeast growth medium per 1536 well plate. 2.#Transfer 23 nl per well of compound to plate. 3.#Dispense 2.5 ul yeast solution at appropriate seeding density per well. 4.#Incubate for 48 hours at 37C. 5.#Dispense 5 ul of CellTiterGlow solution per well. 6.#Incubate at ambient for 10 minutes. 7.#Read using bio-luminescence protocol on Viewlux.
In general terms: Quantitative high-throughput screening tests each substance at several concentrations.
Regarding `COc1cccc(CNC(=O)CN2C(=O)CSc3ccc(S(=O)(=O)N4CCOCC4)cc32)c1`, the growth rescue (activation) was determined as 14.2%.

With `Cc1cc(=O)n2[nH]c(-c3sccc3-n3c(C)ccc3C)cc2n1`, the growth rescue (activation) was 7.07%.

Turning to `C=CCNC(=O)N1CCC(n2nccc2NC(=O)CCCc2ccccc2)CC1`, the growth rescue (activation) was found to be 17.2%. Consider `Cc1ccc(C(=O)Oc2cccc(NC(=O)c3ccccc3)c2)cc1C`, for which the Potency is active: 10 µM. In the case of `Cn1c(CNC(=O)C(Cc2ccccc2)NC(=O)c2ccccc2)cc(=O)n(C)c1=O` (centres undefined), the growth rescue (activation) amounted to 53.1%. The same measure, in the same setting: next, `C=CCOc1ccc(/C=C2/C(=N)N3N=C(CC(=O)N4CCCC4)SC3=NC2=O)cc1OC`: 4.51%.

As for `O=C(CCc1ccc(O)cc1)c1c(O)cc(O)cc1O`, the “growth rescue (activation)” value is inactive: 7.16%. On to `COc1ccc(NC(=S)NC(=O)c2ccccc2Cl)cc1`, for which the growth rescue (activation) worked out at 26.6%. Take `COc1ccc(NC(=O)C2CCCN(c3cnccn3)C2)c(OC)c1` (centres undefined): the growth rescue (activation) is 17.5%. Still for that read-out and setting: under `C=C1C(=O)C=C[C@]2(C)C[C@@H]3OC(=O)[C@](C)(O)[C@H]3C[C@@H]12` stands inactive: -43.6%; under `CC1(C)CC(O)CC(C)(C)N1CC(O)COCc1ccccc1` (centres undefined), 9.76%. With `COc1ccc(C(=O)OCC(=O)Nc2cccc(C(C)=O)c2)cc1OC`, the growth rescue (activation) is 25.2%. Take `COc1cc(Nc2ccccn2)cc(C(=O)Nc2cccc(C(F)(F)F)c2)c1`: the “growth rescue (activation)” value is inactive: -133%. On to `FC(F)Oc1ccc(NC(=S)NC2CCCCCCC2)cc1`, for which the “growth rescue (activation)” value was inactive: -47.8%. On the same count and under the same terms, under `COC(=O)CN(C(=O)CSc1nnc(-c2cccc(OC)c2)o1)c1ccc(OC)cc1` stands inactive: -30.6%; under `Cc1nn(CC(=O)N2CCN(c3cccc(C(F)(F)F)c3)CC2)c(=O)c2cccn12`, 15.4%. As for `O=C(Nc1cccc(-c2csc(Nc3ccc(Cl)cc3)n2)c1)c1cccc(C(F)(F)F)c1`, the “growth rescue (activation)” value is inactive: -127%.

For the molecule `CC(=O)N1c2ccc(S(=O)(=O)N3CCCC3)cc2CC1C(=O)Nc1cc(C)cc(C)c1` (centres undefined), the growth rescue (activation) was 28.5%. Turning to `COc1ccc(/C=C2/C(=N)N3N=C(CC(=O)N4CCCC4)SC3=NC2=O)cc1`, the growth rescue (activation) came out at 23.5%.

Turning to `Cc1ccc(-n2nc3c(=O)n(C(C)C(=O)NC4CC4)nc(C)c3c2C)cc1` (centres undefined), the growth rescue (activation) was -3.29%. On the same count and under the same terms, next, `Cc1nn(C)c(NC(=O)c2ccc(Cl)cc2Cl)c1Br`: 35.7%.

As to `COCc1cc(C)nc(OCC(=O)N/N=C/c2ccccc2)c1C#N`, the growth rescue (activation) was found to be 12.7%. The same measure, in the same setting: under `COc1ccc(NS(=O)(=O)c2cn(C)cn2)cc1Cl` stands 19.7%; under `CCC(C)NC(=O)CN1C(=O)CSc2ccc(S(=O)(=O)N3CCCC3)cc21` (centres undefined), 10.2%. With `Cc1ccc(Sc2ccc(NC(=O)CCl)cc2)cc1C`, the Potency was active: 14.1 µM.

As for `COc1ccc(NC(=O)c2nc[nH]c2C(=O)N[C@@H](C)c2ccccc2)cc1`, the “growth rescue (activation)” value was inactive: 29.2%. Still for that read-out and setting: under `CSc1ccc(-c2nc(CSCC(=O)NCCCN3CCCC3=O)c(C)o2)cc1` stands 26%. Same read-out and setting: under `CCC(C)(C)NC(=O)Cc1ccc(C)cc1` stands 42.4%.

As for `COc1cccc(C(=O)Nc2cc3c(cc2N2CCOCC2)n(C)c(=O)n3C)c1`, the growth rescue (activation) is 10.9%.

Values taken from PubChem BioAssay AID485298 (National Center for Advancing Translational Sciences (NCATS), 2010).
